Source: PubChem BioAssay AID624202 (National Center for Advancing Translational Sciences (NCATS), 2012)
The whole screen tested about 380,000 compounds, of which about 4,000 (1.1%) were called active. This list was built around the results that the source calls inconclusive (neither active nor inactive); the mix of calls is not that of the screen. Calls come from the whole dose curve; as a rule, active = well fitted activation curve with a large enough effect; inconclusive = small, poorly fitted or top-dose-only effect; inactive = no such curve, though single readings can be large or run the other way. Potencies beside an inconclusive call are fits to weak or partial responses and may not hold up.

Test: qHTS Assay to Identify Small Molecule Activators of BRCA1 Expression; note: nearly all actives have a fitted effect of over 80% in size
Conditions: MCF7-BRCA1-FFLuc reporter, luminescence, 48 h; activation: at 46.1 µM (top of the series), scaled: vehicle 0%, 10 µM genistein 100% unless noted
Outline: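 48 h compound treatment of MCF7-BRCA1-FFLuc cells (phenol-red free MEM, 37 °C), then 15 min with luciferase substrate and luminescence imaging.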
Potency is the fitted concentration of half-maximal effect; tags give direction and shape of the fitted curve.

Compound | Potency | activation
O=c1[nH]c2ccccc2cc1-c1nnn(-c2ccc(F)cc2)n1 | inconclusive: 2 µM [activator, full curve, poor fit] | –
COc1ccc2cc3c(N)nn(C(=O)c4cccc(F)c4)c3nc2c1 | inactive | –
Cc1cc(C(=O)CN2C(=O)NC3(CCCCC3)C2=O)c(C)n1C | inconclusive: 11.2 µM [activator, partial curve, poor fit] | –
COc1ccc2[nH]c3c(c2c1)CCn1c-3nc2ccccc2c1=O | inconclusive: 0.631 µM [activator, full curve, poor fit] | –
CCOc1ccc(C(=O)Nc2cc(NC(=O)c3ccc(OCC)c(Cl)c3)cc(C(=O)O)c2)cc1Cl | inactive | –
Cc1nn(-c2ccccc2)c(Cl)c1/C=N/NC(=O)c1ccccc1F | active: 11.2 µM | –
CC(=O)CCSc1ncnc2sc(-c3ccccc3)cc12 | inconclusive: 1.78 µM [activator, full curve, poor fit] | –
O=C(NCC1CC1)c1cccs1 | inactive | –
Cc1cccc(N(O)C(=O)Nc2cccc(Cl)c2)c1 | inconclusive: 22.4 µM [activator, single point] | –
CCc1sc(C(=O)Nc2nc(C)cs2)cc1C | inconclusive: 3.55 µM [activator, partial curve, poor fit] | –
Cc1ccc(C(=O)NNC(=O)c2ccc3c(c2)OCCO3)cc1 | active: 6.31 µM | –
COc1ccc(-c2nc(SCC(=O)Nc3cccc(S(N)(=O)=O)c3)n[nH]2)cc1 | inconclusive: 17.8 µM [activator, partial curve, poor fit] | –
COc1ccccc1C1CC(=O)NC(SCC(=O)Nc2ccccc2)=C1C#N (configuration not stated) | inconclusive: 35.5 µM [activator, single point] | –
CCCCN(C(=O)NC(=O)Nc1nc2ccc(OC)cc2s1)S(C)(=O)=O | inconclusive: 14.1 µM [activator, partial curve, poor fit] | –
Cc1nnc(NC(=O)c2sc3ccccc3c2Cl)s1 | inactive | –
COc1cc2sc(NC(=O)c3ccco3)nc2cc1Cl | inconclusive: 2.82 µM [activator, full curve, poor fit] | –
CC(NC(=O)c1cc(COc2ccc3ncccc3c2)on1)c1ccc(F)cc1 (configuration not stated) | inactive | –
Cc1cc(C(=O)COC(=O)c2ccc(Cl)c(S(N)(=O)=O)c2)c(C)n1CC1CCCO1 (configuration not stated) | active: 11.2 µM | –
O=C(Nc1nnc(SCC(=O)N2CCCc3ccccc32)s1)c1ccc2ccccc2c1 | inconclusive: 3.16 µM [activator, full curve, poor fit] | –
O=C(Nc1ccc2c(c1)CCC2)c1cc2ccccc2o1 | inconclusive: 3.16 µM [activator, partial curve, poor fit] | –
O=C(Nc1ccccc1)Nc1ccc2c(c1)CCC2 | inconclusive: 1.58 µM [activator, full curve, poor fit] | –
Nc1ncc(Br)cc1N=Cc1ccccc1 | inconclusive: 4.47 µM [activator, full curve, poor fit] | –
CC(OC(=O)C1CCN(S(=O)(=O)c2ccc(C(C)(C)C)cc2)CC1)C(=O)N1CCOCC1 (configuration not stated) | inactive | –
O=C(Nc1ccc(N2CCOCC2)cc1)Nc1cnsn1 | inconclusive: 31.6 µM [activator, single point] | –

Compound | Potency | activation
O=C(COc1ccc(Br)cc1Cl)NC(=O)NC1CCCC1 | inconclusive: 14.1 µM [activator, partial curve, poor fit] | –
O=C(c1cc(-c2ccc(Cl)cc2)on1)N1CCCC1 | inconclusive: 0.631 µM [activator, full curve, poor fit] | –
Clc1ccc(COn2nnc3ccccc32)c(Cl)c1 | active: 5.62 µM | –
O=C(CNC(=O)c1ccccc1Br)N/N=C/c1ccccc1O | inactive | –
CCc1cccc(NC(=O)c2nnn(Cc3ccc(SC)cc3)c2N)c1 | inactive | –
O=[N+]([O-])c1ccc(COc2ccc(CN3CCCCC3)cc2)cc1 | active: 7.94 µM | –
CC(C)(C)n1cnc2cc(NC(=O)c3ccc(Cl)cc3)ccc21 | inconclusive: 1.12 µM [activator, full curve, poor fit] | –
O=S(=O)(c1ccc(F)cc1)N1CCN(S(=O)(=O)c2ccc3c(c2)OCCO3)CC1 | inactive | –
Nc1[nH]c(C(=O)c2ccccc2)c(-c2ccc(Cl)cc2)c1C(=O)NCc1ccccc1 | inactive | –
Fc1ccc(C2CC(c3cccs3)=NN2c2ccccc2)cc1 (configuration not stated) | inactive | –
Cc1nn(CCOc2ccccc2)c(=O)n1-c1c(F)cccc1F | active: 5.62 µM | –
CCC1CSC(=Nc2ccc(C)cc2)N1C(=O)CN1C(=O)NC2(CCCC2)C1=O (configuration not stated) | inconclusive: 1.26 µM [activator, partial curve, poor fit] | –
CCC(C(=O)Nc1ccc(C(=O)OC)cc1)n1nc(-c2ccc(C)cc2)c2c(c1=O)CCCC2 (configuration not stated) | inactive | –
Cc1cccc(C(C)C)c1NC(=O)c1ccc(CN(c2ccccc2)S(=O)(=O)c2ccccc2)cc1 | inactive | –
Cc1oc2cc(O)cc(O)c2c(=O)c1-c1ccc2c(c1)OCCCO2 | inconclusive: 14.1 µM [activator, partial curve, poor fit] | –
O=C(NNC(=S)Nc1ccccc1Cl)c1ccccc1Br | active: 8.91 µM | –
S=C(NCC1CCCO1)Nc1ccc(Cl)cc1Cl (configuration not stated) | inconclusive: 14.1 µM [activator, partial curve, poor fit] | –
COc1ccc(-n2nc(C(=O)NCC(=O)N3CCCCCC3)c3ccccc3c2=O)c(OC)c1 | active: 11.2 µM | –
CCOc1ccc(OCc2ccc(C(=O)NCC3CCCO3)o2)cc1 (configuration not stated) | inconclusive: 14.1 µM [activator, partial curve, poor fit] | –
C=CCn1c(C)cc(C(=O)CSc2nnc(C3CC3)n2C2CC2)c1C | inconclusive: 31.6 µM [activator, single point] | –
O=c1c(Br)c(N2CCOCC2)cnn1-c1ccccc1 | active: 12.6 µM | –
O=C(Nc1nc2ccccc2s1)C1CCCO1 (configuration not stated) | inconclusive: 1.12 µM [activator, full curve, poor fit] | –
Cn1cccc1/C=C1\SC(=O)N(c2ccccc2)C1=O | inconclusive: 2 µM [activator, full curve, poor fit] | –
C=Cc1ccc(Cn2c(C)c(C(=O)NCc3ccc4c(c3)OCO4)sc2=O)cc1 | inactive | –

Compound | Potency | activation
COc1cccc(C(=O)Nc2ccc(NC(=O)c3ccco3)nc2)c1 | inconclusive: 0.631 µM [activator, full curve, poor fit] | –
COC(=O)CCN1CCc2cc(N=Nc3ccc([N+](=O)[O-])cc3)ccc21 | inconclusive: 1.58 µM [activator, full curve, poor fit] | –
CCN(CC)S(=O)(=O)c1cccc(NC(=O)C2CC(=O)N(c3ccc4c(c3)OCCO4)C2)c1 (configuration not stated) | inactive | –
COc1ccc(NC(=O)Nc2cccc(OC)c2)cc1 | active: 11.2 µM | –
O=C(COc1ccc(F)cc1)Nc1nc2c(s1)CCCC2 | active: 12.6 µM | –
CSc1ncccc1C(=O)OCC(=O)c1cc(C)n(CC2CCCO2)c1C (configuration not stated) | inconclusive: 1.26 µM [activator, full curve, poor fit] | –
CC(C)(C)c1csc(NC(=O)c2cccs2)n1 | inconclusive: 2.24 µM [activator, full curve, poor fit] | –
O=[N+]([O-])c1ccc2oc(-c3ccccc3)nc2c1 | active: 3.16 µM | –
CCn1cnc2sc(C(=O)Oc3cccc(C)c3)c(C)c2c1=O | inconclusive: 35.5 µM [activator, single point] | –
COc1cccc(/C=N/NC(=O)c2cccs2)c1 | inconclusive: 8.91 µM [activator, partial curve, poor fit] | –
CN(C)c1ccc(-c2ccc(CCO)cc2)cc1 | inconclusive: 11.2 µM [activator, partial curve, poor fit] | –
CCN=c1scc(-c2ccc(F)cc2)n1/N=C/c1ccccn1 | inconclusive: 2.24 µM [activator, full curve, poor fit] | –
CC(C)(C)n1cnc2cc(NC(=O)c3cccs3)ccc21 | inconclusive: 1.26 µM [activator, full curve, poor fit] | –
C=CCN(C(=O)CN1CCCCC1)c1nc(-c2ccccc2)cs1 | inconclusive: 10 µM [activator, partial curve, poor fit] | –
Cc1cccc(OCc2cc(=O)n3c(-c4ccccc4)csc3n2)c1C | inactive | –
CCc1nn(CC(=O)N2CCN(c3cccc(C)c3C)CC2)c(=O)c2cc3occc3n12 | inactive | –
CCOc1ccccc1NC(=O)c1cccc2c1C(=O)N(C1CCCCC1)C2 | inactive | –
O=C1CCCC(O)=C1N=Nc1ccc2c(c1)OCO2 | inconclusive: 11.2 µM [activator, partial curve, poor fit] | –
CN(C(=O)COC(=O)/C=C/c1cccs1)C1CCCCC1 | inconclusive: 35.5 µM [activator, single point] | –
O=C(Cc1cccs1)NCc1ccccc1 | inconclusive: 25.1 µM [activator, single point] | –
NC(=O)c1ccccc1NC(=O)/C=C/c1ccc(Cl)cc1 | inconclusive: 2 µM [activator, partial curve, poor fit] | –
CCOC(=O)C1CCCN(C2=NC(=O)/C(=C/c3ccc(OC)cc3)S2)C1 (configuration not stated) | – | inconclusive: 174% [activator]
O=C(Nc1cc(-c2ccccc2)cs1)c1ccco1 | inconclusive: 3.55 µM [activator, full curve, poor fit] | –
Cc1ccc(COc2ccc(/C=N/NC(=O)c3ccc(CN4CCOCC4)cc3)cc2)cc1 | inconclusive: 2.82 µM [activator, full curve, poor fit] | –
